In PubChem BioAssay AID360 (National Center for Advancing Translational Sciences (NCATS), 2006) one finds Potency data, which are given here for 91 molecules.

The campaign covered roughly 48,000 compounds. About 550 (1.1%) were called active. About 4% were inconclusive and are not listed. Cut-off read from the data, not from the text of the source: active = potency below about 15 µM; inconclusive = mostly about 16 µM to 33 µM; inactive = weaker than that. This is one part of the list. A value given as a limit tells only on which side of the number the result lay.
Potency is the fitted concentration of half-maximal effect.

For this experiment, the target named is Lysosomal acid glucosylceramidase (Homo sapiens) (UniProt P04062). In words: Glucocerebrosidase.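 Note: the screen sought inhibitors.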 The conditions noted are these: purified enzyme, resorufin glucoside fluorescence (screen aimed at inhibitors), 20 min; series mostly up to 77 µM. An outline of the steps: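 Compounds titrated against 0.2 nM normal enzyme, 30 uM resorufin beta-D-glucopyranoside substrate, citrate/phosphate buffer with taurocholate and tween-20, pH 5.9. Reaction ran 20 min at room temperature; fluorescence (Ex 548/Em 600) gave AC50.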
UniProt P04062, sequence (P04062 whole entry, looked up): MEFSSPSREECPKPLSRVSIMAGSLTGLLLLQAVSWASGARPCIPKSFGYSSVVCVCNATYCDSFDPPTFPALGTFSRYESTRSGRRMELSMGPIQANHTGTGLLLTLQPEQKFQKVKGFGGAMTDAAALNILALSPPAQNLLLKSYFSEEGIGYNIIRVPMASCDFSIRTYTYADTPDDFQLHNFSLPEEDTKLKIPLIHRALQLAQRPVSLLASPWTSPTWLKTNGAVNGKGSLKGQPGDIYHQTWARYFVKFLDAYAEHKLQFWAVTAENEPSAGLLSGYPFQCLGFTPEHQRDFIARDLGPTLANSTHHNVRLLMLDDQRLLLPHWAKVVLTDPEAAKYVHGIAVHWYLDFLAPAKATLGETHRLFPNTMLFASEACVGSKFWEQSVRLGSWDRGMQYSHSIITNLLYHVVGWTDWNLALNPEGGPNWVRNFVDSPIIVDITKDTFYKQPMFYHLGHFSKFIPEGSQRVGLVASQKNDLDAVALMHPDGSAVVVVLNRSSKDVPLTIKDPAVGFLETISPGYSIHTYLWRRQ
Consider `O=C(NCCc1c[nH]c2ccccc12)C(F)(F)C(F)F`, for which the Potency was inactive: > 76.9 µM.

With `CC(NC(=O)c1cccc(F)c1)C(c1cccs1)N1CCN(C)CC1` (stereo unspecified), the Potency is inactive: > 76.9 µM.

As to `COc1cccc2c(C)c(C(=O)O)[nH]c12`, the Potency is inactive: > 76.9 µM.

`COCc1[nH]nc2c1C1(C(=O)Nc3ccc(F)cc31)C(C#N)=C(N)O2` (stereo unspecified): the Potency was inactive: > 76.9 µM.

As for `CCCCn1c(SCC(=O)N(CC)C2CCS(=O)(=O)C2)nnc1C(CC)N(C)C` (stereo unspecified), the Potency was inactive: > 76.9 µM.

Take `COc1cc(-c2nc(S(=O)(=O)c3ccc(Cl)cc3)c(N3CCOCC3)o2)cc(OC)c1OC`: the Potency was inactive: > 76.9 µM.

`Cc1ccc(OCc2nc(C#N)c(NCc3ccc4c(c3)OCO4)o2)cc1`: the Potency was inactive: > 76.9 µM.

In the case of `CCC(c1nnnn1Cc1ccco1)N1CCC(C(N)=O)CC1` (stereo unspecified), the Potency was inactive: > 76.9 µM.

In the case of `CCNc1nc(SC(C)C(=O)Nc2ccccc2)nc(N2CCOCC2)n1` (stereo unspecified), the Potency is inactive: > 76.9 µM.

For `CCn1c(SCC(=O)Nc2ccc(NC(=O)c3ccco3)c(OC)c2)nc2ccccc2c1=O`, the Potency is inactive: > 76.9 µM.

Turning to `COc1cc2c(C)nc3onc(-c4ccccc4)c3c2cc1OC`, the Potency is inactive: > 76.9 µM.

For the molecule `COCCN(CCOC)C(=O)c1cc2sc3ccccc3c2s1`, the Potency is inactive: > 76.9 µM.

For `COn1c(SCC(=O)N(C)C)nc2ccccc2c1=O`, the Potency is inactive: > 76.9 µM.

On to `CCC1(C)Cc2c(sc3nc(NC)n(C)c(=O)c23)CO1` (stereo unspecified), for which the Potency is inactive: > 76.9 µM.

On to `Cc1c(NC(=O)CN2CCCc3ccccc32)c(=O)n(-c2ccccc2)n1C`, for which the Potency is inactive: > 76.9 µM.

`COc1ccc2nc(N3CCCC3)c(C#N)cc2c1`: the Potency is inactive: > 76.9 µM.

Consider `Cc1ccc2c(COC(=O)c3n[nH]c4ccccc34)cc(=O)oc2c1`, for which the Potency is inactive: > 76.9 µM.

In the case of `Cc1nn(CCc2nn[nH]n2)c2nc(C(F)(F)F)cc(C(F)(F)F)c12`, the Potency was inactive: > 76.9 µM.

As for `CSc1ccc(-c2nnn(CC(=O)NCc3ccccc3)n2)cc1`, the Potency was inactive: > 76.9 µM.

In the case of `COc1cc2cc(CN(CCN3CCCC3)C(=O)Nc3ccc(F)cc3)c(=O)[nH]c2cc1OC`, the Potency was inactive: > 76.9 µM.

Turning to `O=C(NCCN1CCOCC1)c1cccs1`, the Potency was inactive: > 76.9 µM.

For `CC(=O)c1cnc2nc(C)nn2c1C`, the Potency is inactive: > 76.9 µM.

For `CC#CCCC(=O)N1C=Cc2ccccc2C1C#N` (stereo unspecified), the Potency is inactive: > 76.9 µM.

For `COc1cccc(-c2nn(C)c3sc(C(=O)N4CCN(c5ccccc5)CC4)cc23)c1`, the Potency is inactive: > 76.9 µM.

Take `COc1cccc(CNC(=O)C2CCN(C(=O)N(C)C)CC2)c1`: the Potency was inactive: > 76.9 µM.

As to `CCOC(=O)Cc1csc(NC(=O)CSc2nnc(-n3nc(C)cc3C)c3ccccc23)n1`, the Potency is inactive: > 76.9 µM.

Regarding `Nc1cc(N)nc(SCc2cc(=O)oc3cc4c(cc23)CCC4)n1`, the Potency was inactive: > 76.9 µM.

Take `COC(=O)c1ccccc1NC(=O)Cn1c(SC)c(F)cnc1=O`: the Potency was inactive: > 76.9 µM.

Turning to `CC(=O)c1ccc(-n2nnnc2SCC(=O)N2CCN(C(=O)c3ccco3)CC2)cc1`, the Potency is inactive: > 76.9 µM.

For `COc1cc(OC)cc(C(=O)N(Cc2nc(-c3cccc(C)c3)no2)C(C)C)c1`, the Potency is inactive: > 76.9 µM.

`COc1cc(CC(=O)Nc2nccs2)cc(OC)c1OC`: the Potency was inactive: > 76.9 µM.

`CCOc1cc(N2CCOCC2)c(OCC)cc1NC(=O)C(NC(=O)c1ccco1)C(C)C` (stereo unspecified): the Potency was inactive: > 76.9 µM.

As for `Cc1ccc(C(O)c2nccn2C)o1` (stereo unspecified), the Potency was inactive: > 76.9 µM.

Turning to `CCc1ccc(C2=Nn3c(nnc3-c3cccs3)SC2)cc1`, the Potency is active: 8.15 µM.

Take `CC(=O)Nc1ccccc1OCc1nnc(-c2cccs2)o1`: the Potency is inactive: > 76.9 µM.

On to `CCC(C)COC(=O)C(C#N)c1nc2ccccc2nc1N1CCCCC1` (stereo unspecified), for which the Potency was inactive: > 76.9 µM.

With `S=C(c1ccc(N2CCOCC2)cc1)N1CCOCC1`, the Potency is inactive: > 76.9 µM.

In the case of `O=C(CN1CCN(C(=O)c2ccccc2)CC1)Nc1ccc(Br)cn1`, the Potency is inactive: > 76.9 µM.

Consider `CC(C)C(c1nnnn1CC1CCCO1)N1CCN(C2CCCC2)CC1` (stereo unspecified), for which the Potency was inactive: > 76.9 µM.

Regarding `Cc1ccc(C2CC(c3cccc(Br)c3)Nc3nnnn32)cc1` (stereo unspecified), the Potency was inactive: > 76.9 µM.

Turning to `O=C(O)c1cc(S(=O)(=O)Nc2ccc3oc(=O)sc3c2)ccc1O`, the Potency was inactive: > 76.9 µM.

Regarding `Cc1[nH]c(=O)[nH]c(=O)c1S(=O)(=O)N1CCCC(C(=O)NCc2ccco2)C1` (stereo unspecified), the Potency is inactive: > 76.9 µM.

Consider `O=S(=O)(Nc1ccc(Cc2ccncc2)cc1)N1CCCC1`, for which the Potency is inactive: > 76.9 µM.

Consider `O=C(NCc1ccco1)c1c2c(nc3ccccc13)CCC2`, for which the Potency was inactive: > 76.9 µM.

`O=C(CN(CC1CCCO1)C(=O)CCC(=O)Nc1ccccn1)NCC1CCCO1` (stereo unspecified): the Potency is inactive: > 76.9 µM.

With `CNC(=O)NC(=O)CSc1ncc(C(F)(F)F)cc1Cl`, the Potency was inactive: > 76.9 µM.

In the case of `COc1cccc(C2CC(=O)Nc3cc(OC)c(OC)c(OC)c32)c1OC` (stereo unspecified), the Potency is inactive: > 76.9 µM.

As to `CC(O)CNc1ncnc2nc[nH]c12` (stereo unspecified), the Potency was inactive: > 76.9 µM.

`COCCCNC(=O)c1c(-c2ccccc2)noc1C`: the Potency was inactive: > 76.9 µM.

In the case of `O=c1c2[nH]c3ccc(F)cc3c2ncn1CCCN1CCOCC1`, the Potency was inactive: > 76.9 µM.

Regarding `COCCn1nnnc1C(c1cccs1)N1CCN(c2ccccc2)CC1` (stereo unspecified), the Potency was inactive: > 76.9 µM.

As to `C#CCn1cc[n+](CC(=O)N(C)C)c1`, the Potency was inactive: > 76.9 µM.

Consider `CC(=O)Nc1ccc(S(=O)(=O)NCc2ccc(C(=O)NCc3ccc4c(c3)OCO4)cc2)cc1`, for which the Potency result was “inactive”.

Consider `CCOC(=O)C1CCN(C(C(=O)Nc2ccc3c(c2)OCCO3)c2ccccc2)CC1` (stereo unspecified), for which the Potency is inactive: > 76.9 µM.

For the molecule `CC(=O)Nc1ccc(S(=O)(=O)N2CCC(n3cnc4cc(F)ccc43)CC2)cc1`, the Potency was inactive: > 76.9 µM.

With `CC(=O)Oc1ccc(N2C(=O)CCC2=O)cc1`, the Potency was inactive: > 76.9 µM.

For the molecule `O=C(Nc1ccon1)C(Sc1ccccc1)c1ccccc1` (stereo unspecified), the Potency was inactive: > 76.9 µM.

Regarding `COC(=O)c1ccccc1NC(=O)CSc1nnnn1C1CCCCC1`, the Potency was inactive: > 76.9 µM.

As for `COc1ccc2c(C)cc(SCC#N)nc2c1`, the Potency was inactive: > 76.9 µM.

As to `O=C(NC(Cc1ccccc1)C(=O)O)c1ccc(S(=O)(=O)N2CCCC2)cc1` (stereo unspecified), the Potency is inactive: > 76.9 µM.

For the molecule `CCN(c1ccccc1)c1nc2ccsc2c(=O)s1`, the Potency was inactive: > 76.9 µM.

Regarding `O=C(NCC1CCCO1)c1ccccc1-c1nc(-c2ccccc2)no1` (stereo unspecified), the Potency is inactive: > 76.9 µM.

For the molecule `O=C(Cn1cnc2ccccc2c1=O)N1CCN(Cc2ccccc2)CC1`, the Potency was inactive: > 76.9 µM.

Consider `O=C(CCC1CCCC1)N1CCN(C(=O)c2cccnc2)CC1`, for which the Potency is inactive: > 76.9 µM.

Take `COc1cc(-c2nnc(SCC#CCO)o2)cc(OC)c1OC`: the Potency is inactive: > 76.9 µM.

On to `COc1cccc(OC)c1C(=O)Nn1c(C2CCC2)nc2ccccc2c1=O`, for which the Potency was inactive: > 76.9 µM.

As to `O=C(C1CCCN1S(=O)(=O)c1ccc(Cl)c(Cl)c1)N1CCCCC1` (stereo unspecified), the Potency is inactive: > 76.9 µM.

For the molecule `COc1ccccc1N1CCN(CC(=O)Nc2cc(F)ccc2C)CC1`, the Potency was inactive: > 76.9 µM.

Take `CCOC(=O)c1[nH]c(C)c(/C(O)=C2\C(=O)C(=O)N(CCCN3CCOCC3)C2c2cccnc2)c1C` (stereo unspecified): the Potency was inactive: > 76.9 µM.

As to `COc1ccc(NC(=O)c2[nH]c(C)c(C(C)=O)c2C)cc1Cl`, the Potency is inactive: > 76.9 µM.

Consider `O=C(Nc1cccc2c1CCCC2)C1CCN(c2nnnn2-c2ccccc2)CC1`, for which the Potency is inactive: > 76.9 µM.

Take `C(=N\n1cnnc1)/c1ccc2ncccc2c1`: the Potency is inactive: > 76.9 µM.

Take `O=S(=O)(Cc1ccccc1)N1CCCC(c2nc(-c3ccc(F)cc3)no2)C1` (stereo unspecified): the Potency is inactive: > 76.9 µM.

Consider `CC1(C)CC(=O)C=C(NCCN2CCN(C(=O)Nc3ccccc3)CC2)C1`, for which the Potency was inactive: > 76.9 µM.

For `COc1ccc(CN(CC(=O)NCC2CCCO2)C(=O)CNS(=O)(=O)c2ccc(C)cc2)cc1` (stereo unspecified), the Potency is inactive: > 76.9 µM.

In the case of `FC(F)(F)c1ccc(N2CCOCC2)c(NC2=NCCCCC2)c1`, the Potency was inactive: > 76.9 µM.

Consider `Cc1cccc(OCC(=O)Nc2ccc3c(c2)nc(CCN2CCN(C)CC2)n3C)c1`, for which the Potency is inactive: > 76.9 µM.

In the case of `Cc1ccc(N2CC(C(=O)N3CCCc4ccccc43)CC2=O)cc1` (stereo unspecified), the Potency is inactive: > 76.9 µM.

With `COc1ccccc1NC(=O)Nn1cnnc1`, the Potency was inactive: > 76.9 µM.

On to `COC(=O)c1sccc1NC(=O)c1ccc(Cl)s1`, for which the Potency is inactive: > 76.9 µM.

Regarding `CCOC(=O)C1=C(c2ccccc2)Nc2nc(C)nn2C1c1cccc(OC)c1OC` (stereo unspecified), the Potency was inactive: > 76.9 µM.

Consider `Cc1cccc(N(C)S(=O)(=O)c2ccc3[nH]cc(C(=O)N4CCOCC4)c(=O)c3c2)c1`, for which the Potency was inactive: > 76.9 µM.

For the molecule `Cc1ccccc1Cn1c(=O)c2c(nc3n2CCN3Cc2ccco2)n(C)c1=O`, the Potency is inactive: > 76.9 µM.

`CCOC(=O)CSc1nnc(CNC(=O)Cc2ccccc2)n1C`: the Potency is inactive: > 76.9 µM.

As to `CCCOc1ccc(OC(=O)c2ccc(Br)o2)cc1`, the Potency is inactive: > 76.9 µM.

With `CCOC(=O)c1cnc2ccc(Cl)cc2c1N1CCN(C)CC1`, the Potency result is “inactive”.

Consider `CCOc1ccc(C2CC(=O)c3c([nH]c(C(=O)OC)c3C)C2)cc1OC` (stereo unspecified), for which the Potency is inactive: > 76.9 µM.

In the case of `CCOC(=O)N1CCN(CC(=O)Nc2cc(C)nn2-c2nc3ccccc3s2)CC1`, the Potency is inactive: > 76.9 µM.

Take `Cc1ccccc1NC(=O)NCCCN1CCN(C2CCCCC2)CC1`: the Potency was inactive: > 76.9 µM.

Regarding `O=C(c1ccc(Br)o1)N1CCN(c2ccccn2)CC1`, the Potency was inactive: > 76.9 µM.

`O=C(c1ccc2c(c1)OCO2)N1CCCc2ccccc21`: the Potency was inactive: > 76.9 µM.
